Measured values from patent US7423058B2, “Inhibitors of hepatitis C virus NS3 protease” (Schering Corporation, priority 2004, dated 2008).

These compounds were tested against Recombinant heterodimeric HCV NS3/NS4A protease (strain 1a) (Hepatitis C virus genotype 1a, UniProt P27958) (assay: Spectrophotometric assay for HCV protease inhibitory activity (chromogenic ester substrates)). Settings: Table 1: Ketones; read-out: Ki* Range.
Format: biochemical
For `C=CCNC(=O)C(=O)C(CCC)NC(=O)[C@@H]1[C@@H]2[C@H](CN1C(=O)[C@@H](NC(=O)N[C@H](C(=O)C1CC1)C(C)C)C1Cc3ccccc3C1)C2(C)C` (some centres unmarked) [compound 4123], the Ki was < 75 nM.
For `C=CCNC(=O)C(=O)C(CC1CC1)NC(=O)[C@@H]1[C@@H]2[C@H](CN1C(=O)[C@@H](NC(=O)N[C@H](C(=O)C1CC1)C1CCCCC1)C(C)(C)C)C2(C)C` (some centres unmarked) [compound 4111], the Ki was < 75 nM.
For `CNC(=O)C(=O)C(CCC(F)(F)F)NC(=O)[C@@H]1[C@@H]2[C@H](CN1C(=O)[C@@H](NC(=O)N[C@H](C(=O)C1CC1)C(C)C)C(C)(C)C)C2(C)C` (some centres unmarked) [compound 4150], the Ki was < 75 nM.
For `CC(C)[C@H](NC(=O)N[C@H](C(=O)N1C[C@H]2[C@@H]([C@H]1C(=O)NC(CC1CC1)C(=O)C(N)=O)C2(Cl)Cl)C(C)(C)C)C(=O)C1CC1` (some centres unmarked) [compound 4018], the Ki was < 75 nM.
`CNC(=O)C(=O)C(CC1CC1)NC(=O)[C@@H]1[C@@H]2[C@H](CN1C(=O)[C@@H](NC(=O)N[C@H](C(=O)C1CC1)C1CCCCC1)C(C)(C)C)C2(C)C` (some centres unmarked) [compound 4173] was tested, and the Ki was 76 to 250 nM.
`CC(C)[C@H](OC(=O)N[C@H](C(=O)N1C[C@H]2[C@@H]([C@H]1C(=O)NC(CC1CC1)C(=O)C(N)=O)C2(C)C)C1(C(F)(F)F)CC1)C(=O)c1ccccc1` (some centres unmarked) [compound 4165] was tested, and the Ki was < 75 nM.
`CC(C)[C@H](NC(=O)N[C@H](C(=O)N1CC2OC(C)(C)CC2[C@H]1C(=O)NC(CC1CCC1)C(=O)C(N)=O)C1CCCCC1)C(=O)c1nccs1` (some centres unmarked) [compound 4185] showed a Ki of 76 to 250 nM.
`CC(C)[C@H](NC(=O)N[C@H](C(=O)N1C[C@H]2[C@@H]([C@H]1C(=O)NC(CC1CCC1)C(=O)C(N)=O)C2(C)C)C(C)(C)C)C(=O)C1CC1` (some centres unmarked) [compound 4074] was tested, and the Ki was < 75 nM.
For `Cc1ccc(C(=O)[C@@H](NC(=O)N[C@H](C(=O)N2C[C@H]3[C@@H]([C@H]2C(=O)NC(CC2CC2)C(=O)C(N)=O)C3(C)C)C(C)(C)C)C(C)C)cc1` (some centres unmarked) [compound 4027], the Ki was < 75 nM.
With `C=CCNC(=O)C(=O)C(CCCC)NC(=O)[C@@H]1[C@@H]2[C@H](CN1C(=O)[C@@H](NC(=O)N[C@H](C(=O)C1CC1)C1CCCCC1)C(C)(C)C)C2(C)C` (some centres unmarked) [compound 4139] the Ki was < 75 nM.
For `CC(C)(C)[C@H](NC(=O)N[C@H]1CCCCC1=O)C(=O)N1C[C@H]2[C@@H]([C@H]1C(=O)NC(CC1CC1)C(=O)C(N)=O)C2(C)C` (some centres unmarked) [compound 4166], the Ki was < 75 nM.
With `C=CCNC(=O)C(=O)C(CCC)NC(=O)[C@@H]1[C@@H]2[C@H](CN1C(=O)[C@@H](NC(=O)N[C@H](C(=O)C1CC1)C(C)C)C(C)(C)C)C2(C)C` (some centres unmarked) [compound 4103] the Ki was < 75 nM.
`CCCC(NC(=O)[C@@H]1[C@@H]2[C@H](CN1C(=O)[C@@H](NC(=O)N[C@H](C(=O)C(C)C)C(C)C)C(C)(C)C)C2(C)C)C(=O)C(=O)NC` (some centres unmarked) [compound 4188] gave a Ki of 76 to 250 nM.
For `C=CCNC(=O)C(=O)C(CCC)NC(=O)[C@@H]1[C@@H]2[C@H](CN1C(=O)[C@@H](NC(=O)N[C@H](C(=O)C1CCC1)C(C)C)C(C)(C)C)C2(C)C` (some centres unmarked) [compound 4146], the Ki was < 75 nM.

Same assay, conditions: Table 3, Esters; read-out: Ki* Range
For `CC(C)[C@H](NC(=O)N[C@H](C(=O)N1C[C@H]2[C@@H]([C@H]1C(=O)NC(CC1CC1)C(=O)C(N)=O)C2(C)C)C(C)(C)C)C(=O)OC1Cc2ccccc2C1` (some centres unmarked) [compound 4418], the Ki was < 75 nM.
For `C=CCNC(=O)C(=O)C(CCCC)NC(=O)[C@@H]1[C@@H]2[C@H](CN1C(=O)[C@@H](NC(=O)N[C@H](C(=O)OC(C)C)C(C)C)C1CCCCC1)C2(C)C` (some centres unmarked) [compound 4638], the Ki was > 250 nM.
`CC(C)[C@](C)(NC(=O)N[C@H](C(=O)N1C[C@H]2[C@@H]([C@H]1C(=O)NC(CC1CCC1)C(=O)C(N)=O)C2(C)C)C(C)(C)C)C(=O)OCc1ccccc1` (some centres unmarked) [compound 4491] was tested, and the Ki was < 75 nM.
For `CC[C@H](C)[C@H](NC(=O)N[C@H](C(=O)N1C[C@H]2[C@@H]([C@H]1C(=O)NC(CC1CC1)C(=O)C(N)=O)C2(C)C)C(C)(C)C)C(=O)OC(C)(C)C` (some centres unmarked) [compound 4414], the Ki was < 75 nM.
Compound `CC1(C)[C@@H]2[C@@H](C(=O)NC(CC3CC3)C(=O)C(N)=O)N(C(=O)[C@@H](NC(=O)N[C@H](C(=O)OCC3CC3)C3CCC3)C3(C(F)(F)F)CC3)C[C@@H]21` (some centres unmarked) [compound 4601] has a Ki of 76 to 250 nM.
`CC(C)(C)OC(=O)[C@@H](NC(=O)N[C@H](C(=O)N1C[C@H]2[C@@H]([C@H]1C(=O)NC(CC1CC1)C(=O)C(=O)NCCc1ccccc1)C2(C)C)C(C)(C)C)C(C)(C)C` (some centres unmarked) [compound 4636] was tested, and the Ki was > 250 nM.
`C=CCNC(=O)C(=O)C(CCC)NC(=O)[C@@H]1[C@@H]2[C@H](CN1C(=O)[C@@H](NC(=O)N[C@H](C(=O)O[C@H](C)c1ccccc1)C(C)C)C(C)(C)C)C2(C)C` (some centres unmarked) [compound 4503] was tested, and the Ki was < 75 nM.
For `CC(C)(C)C[C@H](NC(=O)N[C@H](C(=O)N1C[C@H]2[C@@H]([C@H]1C(=O)NC(CC1CCC1)C(=O)C(N)=O)C2(C)C)C(C)(C)C)C(=O)OCc1ccccc1` (some centres unmarked) [compound 4439], the Ki was < 75 nM.
With `CC(C)[C@H](NC(=O)N[C@H](C(=O)N1C[C@H]2[C@@H]([C@H]1C(=O)NC(CC1CC1(F)F)C(=O)C(N)=O)C2(C)C)C(C)(C)C)C(=O)OCc1ccccc1` (some centres unmarked) [compound 4434] the Ki was < 75 nM.
For `CC(C)(C)[C@H](NC(=O)N[C@H](C(=O)OCc1ccccc1)C1CCCC1)C(=O)N1C[C@H]2[C@@H]([C@H]1C(=O)NC(CC1CC1)C(=O)C(N)=O)C2(C)C` (some centres unmarked) [compound 4314], the Ki was < 75 nM.
Work on `C=CC(OC(=O)C1(NC(=O)N[C@H](C(=O)N2C[C@H]3[C@@H]([C@H]2C(=O)NC(CC2CC2)C(=O)C(N)=O)C3(C)C)C(C)(C)C)CCCCC1)c1ccccc1` (some centres unmarked) [compound 4539] yielded a Ki of 76 to 250 nM.
`CC(C)[C@H](NC(=O)N[C@H](C(=O)N1C[C@H]2[C@@H]([C@H]1C(=O)NC(CC1CC1)C(=O)C(=O)NCC1CC1)C2(C)C)C(C)(C)C)C(=O)OC(C)(C)C` (some centres unmarked) [compound 4647] was tested, and the Ki was > 250 nM.
For `CC(C)(C)[C@H](NC(=O)NC1(C(=O)OCc2ccccc2)CCOCC1)C(=O)N1C[C@H]2[C@@H]([C@H]1C(=O)NC(CC1CCC1)C(=O)C(N)=O)C2(C)C` (some centres unmarked) [compound 4655], the Ki was > 250 nM.
With `CC(C)[C@](C)(NC(=O)N[C@H](C(=O)N1C[C@H]2[C@@H]([C@H]1C(=O)NC(CC1CCC1)C(=O)C(N)=O)C2(C)C)C1CCCCC1)C(=O)OCc1ccccc1` (some centres unmarked) [compound 4519] the Ki was < 75 nM.
In the case of `CC(C)(C)OC(=O)[C@H](NC(=O)N[C@H](C(=O)N1C[C@H]2[C@@H]([C@H]1C(=O)NC(CC1CCC1)C(=O)C(N)=O)C2(C)C)C(C)(C)C)C(C)(C)C` (some centres unmarked) [compound 4309], the Ki is reported as < 75 nM.
`C#CCCC(NC(=O)[C@@H]1[C@@H]2[C@H](CN1C(=O)[C@@H](NC(=O)N[C@H](C(=O)OC(C)(C)C)C(C)(C)C)C(C)(C)C)C21CCCC1)C(=O)C(=O)NCC=C` (some centres unmarked) [compound 4510] was tested, and the Ki was < 75 nM.
With `COC(=O)[C@@H](NC(=O)N[C@H](C(=O)N1C[C@H]2[C@@H]([C@H]1C(=O)NC(CC1CCC1)C(=O)C(N)=O)C2(Cl)Cl)C(C)(C)C)C(C)(C)O` (some centres unmarked) [compound 4571] the Ki was 76 to 250 nM.
In the case of `CC(C)(C)OC(=O)[C@@H](NC(=O)N[C@H](C(=O)N1C[C@@H]2OC(C)(C)C[C@@H]2[C@H]1C(=O)NC(CC1CC1)C(=O)C(N)=O)C1(C)CCCCC1)C(C)(C)C` (some centres unmarked) [compound 4637], the Ki is reported as > 250 nM.
For `CC(C)[C@H](NC(=O)N[C@H](C(=O)N1C[C@H]2[C@@H]([C@H]1C(=O)NC(CC1CC1)C(=O)C(N)=O)C2(C)C)C(C)(C)C)C(=O)OCc1ccc(F)cc1` (some centres unmarked) [compound 4371], the Ki was < 75 nM.
With `CC(C)(C)[C@H](NC(=O)N[C@H](C(=O)OCc1ccccc1)C1(C(F)(F)F)CC1)C(=O)N1C[C@H]2[C@@H]([C@H]1C(=O)NC(CC1CCC1)C(=O)C(N)=O)C2(C)C` (some centres unmarked) [compound 4353] the Ki was < 75 nM.
With `CC(C)(C)[C@H](NC(=O)NC1(C(=O)OCc2ccoc2)CCCCC1)C(=O)N1C[C@H]2[C@@H]([C@H]1C(=O)NC(CC1CC1)C(=O)C(N)=O)C2(C)C` (some centres unmarked) [compound 4448] the Ki was < 75 nM.
`CC(C)(C)OC(=O)[C@@H](NC(=O)N[C@H](C(=O)N1C[C@H]2[C@@H]([C@H]1C(=O)NC(CC1CCC1)C(=O)C(N)=O)C2(C)C)C1(C)CCCC1)C(C)(C)C` (some centres unmarked) [compound 4312] was tested, and the Ki was < 75 nM.
In the case of `CC(C)C[C@H](NC(=O)N[C@H](C(=O)N1C[C@H]2[C@@H]([C@H]1C(=O)NC(CC1CCC1)C(=O)C(N)=O)C2(C)C)C(C)(C)C)C(=O)OCc1ccccc1` (some centres unmarked) [compound 4658], the Ki is reported as > 250 nM.
For `C=CCNC(=O)C(=O)C(CCC)NC(=O)[C@@H]1[C@@H]2[C@H](CN1C(=O)[C@@H](NC(=O)N[C@H](C(=O)OCC1CC1)C(C)(C)C)C(C)(C)C)C2(C)C` (some centres unmarked) [compound 4467], the Ki was < 75 nM.
In the case of `C=CCNC(=O)C(=O)C(CCC)NC(=O)[C@@H]1[C@@H]2[C@H](CN1C(=O)[C@@H](NC(=O)N[C@H](C(=O)OC(C)(C)C)C(C)(C)C)C1CCCC1)C2(C)C` (some centres unmarked) [compound 4524], the Ki is reported as < 75 nM.
For `CC(C)(C)OC(=O)[C@@H](NC(=O)N[C@H](C(=O)N1C[C@H]2[C@@H]([C@H]1C(=O)NC(CC1CC1)C(=O)C(N)=O)C2(Cl)Cl)C1CCCCC1)C(C)(C)C` (some centres unmarked) [compound 4365], the Ki was < 75 nM.
For `CC1(C)C[C@H]2[C@H](CN(C(=O)[C@@H](NC(=O)NC3(C(=O)OCc4ccccc4)CCCCC3)C3CCCCC3)[C@@H]2C(=O)NC(CC2CC2)C(=O)C(N)=O)O1` (some centres unmarked) [compound 4628], the Ki was 76 to 250 nM.
In the case of `CC(C)[C@H](NC(=O)NC1(C(=O)OCc2ccccc2)CCCCC1)C(=O)N1C[C@H]2[C@@H]([C@H]1C(=O)NC(CC1CC1)C(=O)C(N)=O)C2(C)C` (some centres unmarked) [compound 4599], the Ki is reported as 76 to 250 nM.

Same assay, conditions: Table 6; read-out: Ki* range
Work on `CC(C)(C)[C@H](NC(=O)NC1(Cc2ccccn2)CCCN(S(C)(=O)=O)C1)C(=O)N1C[C@H]2[C@@H]([C@H]1C(=O)NC(CC1CC1)C(=O)C(N)=O)C2(C)C` (some centres unmarked) [compound 4980] yielded a Ki of 76 to 250 nM.
For `CC(C)(C)[C@H](NC(=O)NC1(Cc2ccc(OCc3ccccc3)c(OCc3ccccc3)c2)CCCCC1)C(=O)N1C[C@H]2[C@@H]([C@H]1C(=O)NC(CC1CC1)C(=O)C(N)=O)C2(C)C` (some centres unmarked) [compound 4967], the Ki was 76 to 250 nM.
With `C=CCNC(=O)C(=O)C(CCC(F)(F)F)NC(=O)[C@@H]1[C@@H]2[C@H](CN1C(=O)[C@@H](NC(=O)NC1(Cc3nccs3)CCCCC1)C(C)(C)C)C2(C)C` (some centres unmarked) [compound 4952] the Ki was < 75 nM.
With `CC1(C)[C@@H]2[C@@H](C(=O)NC(CC3CC3)C(=O)C(N)=O)N(C(=O)[C@@H](NC(=O)NC3(Cc4cccc(O)c4)CCCCC3)C3CCCCC3)C[C@@H]21` (some centres unmarked) [compound 4934] the Ki was < 75 nM.

Same assay, conditions: Table 8; read-out: Ki*
In the case of `CC(C)(C)[C@H](NC(=O)NC1(Cc2nccs2)CCCCC1)C(=O)N1C[C@H]2[C@@H]([C@H]1C(=O)NC(CC1CCC1)C(=O)C(N)=O)C2(C)C` (some centres unmarked) [drawing 1478], the Ki is reported as 13 nM.
